Like-named read-outs stand apart in the source and are kept apart here.
Key:
[1] = target: T1, human LAG3 expressed on the cell surface (CHO-LAG3, 293T-LAG3 cells) (human, UniProt P18627 23-525); assay: flow cytometry, 293T-LAG3 cells
T1 construct: Stably transfected CHO or HEK293T cells; also called Human LAG3 (CHO); Human LAG3 (293T)
T1 sequence: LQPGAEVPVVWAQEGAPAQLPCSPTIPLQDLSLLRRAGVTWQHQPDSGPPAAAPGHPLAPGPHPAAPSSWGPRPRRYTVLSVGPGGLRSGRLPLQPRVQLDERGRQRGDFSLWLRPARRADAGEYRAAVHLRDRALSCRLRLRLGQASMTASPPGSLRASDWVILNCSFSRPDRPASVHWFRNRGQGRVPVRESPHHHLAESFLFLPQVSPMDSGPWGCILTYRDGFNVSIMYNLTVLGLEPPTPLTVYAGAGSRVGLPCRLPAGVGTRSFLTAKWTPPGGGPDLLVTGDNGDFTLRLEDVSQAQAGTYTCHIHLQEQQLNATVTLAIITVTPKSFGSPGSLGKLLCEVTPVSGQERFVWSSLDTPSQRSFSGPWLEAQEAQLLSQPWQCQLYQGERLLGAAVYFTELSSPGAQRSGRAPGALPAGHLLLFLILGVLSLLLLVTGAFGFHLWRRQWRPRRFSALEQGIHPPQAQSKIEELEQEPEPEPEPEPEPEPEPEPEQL

[2] = target: T2, LAG3 (ELISA antigen of Table 25) (Homo sapiens (Human), UniProt P18627 23-450); assay: LAG3 ELISA
T2 sequence: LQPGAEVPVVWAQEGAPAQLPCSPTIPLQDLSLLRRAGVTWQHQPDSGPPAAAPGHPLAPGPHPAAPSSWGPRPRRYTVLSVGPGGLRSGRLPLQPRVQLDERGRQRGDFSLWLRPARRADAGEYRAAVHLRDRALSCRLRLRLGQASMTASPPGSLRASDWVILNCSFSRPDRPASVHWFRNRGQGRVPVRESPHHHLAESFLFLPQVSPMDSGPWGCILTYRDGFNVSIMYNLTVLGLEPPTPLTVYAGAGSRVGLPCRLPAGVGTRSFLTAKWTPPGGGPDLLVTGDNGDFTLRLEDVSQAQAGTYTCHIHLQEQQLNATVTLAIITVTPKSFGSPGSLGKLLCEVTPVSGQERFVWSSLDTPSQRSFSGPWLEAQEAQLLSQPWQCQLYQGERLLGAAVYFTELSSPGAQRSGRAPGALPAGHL

[3] = target: T3, human PD-1 expressed on the surface of CHO cells (human, UniProt Q15116 25-288); assay: flow cytometry, CHO-PD1 cells
T3 construct: I took it as human PD-1; also called CHO-PD1
Protocol: (§1) CHO-k cells stably expressing PD-1 or LAG3 (human or cynomolgus) on the cell surface were used to assess binding affinity of anti-PD-1/LAG3 bispecific antibody constructs. Cells were seeded at 100,000 cells/well in 100 μL of FACS buffer (1×PBS, 0.5% BSA, 0.1% sodium azide) in 96-well polypropylene plates. The cells were centrifuged at 1.5K rpm and resuspended with test antibodies diluted in FACS buffer and incubated on ice for 1 hour. The cells were washed twice with FACS buffer and incubated on ice for 30 mins with R-Phycoerythrin-AffiniPure F(ab′)2 Fragment Goat Anti-Human IgG (H+L) secondary detection antibody (1:200 dilution, Jackson ImmunoResearch Laboratories, West Grove, Pa.). The cells were washed twice with FACS buffer, fixed in 4% paraformaldehyde in PBS (Santa Cruz Biotechnology; Dallas, Tex.) for 20 mins on ice in the dark, washed twice with FACS buffer, and analyzed using the BD LSR II Flow Cytometer (BD Biosciences; San Jose, Calif.). Data were analyzed using FlowJo (FlowJo, LLC; Ashland, Oreg.) to determine mean fluorescence intensities. Binding constants were calculated using the statistical software, GraphPad Prism (GraphPad Software; La Jolla, Calif.) using the nonlinear regression equation, one site—specific binding with Hill slope. The secondary antibody by itself was used as a control.

[4] = target: PD1 (ELISA antigen of Table 25); assay: PD1 ELISA
[5] = target: T3, human PD-1 expressed on the surface of …; assay: flow cytometry, CHO-PD1 cells; remark: listed apart in the source
Protocol: as §1

Sequence of PD1 (ELISA antigen of Table 25) (Q15116 25-170): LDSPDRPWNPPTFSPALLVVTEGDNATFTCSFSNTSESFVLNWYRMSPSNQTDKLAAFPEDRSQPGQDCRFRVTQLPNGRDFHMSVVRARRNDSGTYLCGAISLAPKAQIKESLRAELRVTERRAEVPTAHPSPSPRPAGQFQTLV

Kd [1]: 15 nM
EC50 [2]: 0.44 nM
Bmax [3]: 7200
Kd [3]: 1.1 nM
EC50 [4]: 1.2 nM
Kd [5]: 6 nM
B1: Construct F: aLAG3 1449-G09.2_H x aPD1 1353-G10_K (two-chain scFvFc, knob-in-hole) (bispecific antibody)
scFv 1: MQVQLVESGGGVVQPGRSLRLSCAASGFTFSSYGMHWVRQAPGKGLEWVAVIWYDGSYKYYADSVKGRFTISRDNSKNTLYLQMNSLRAEDTAVYYCAREEAPENWDYALDVWGQGTTVTVSSAPGPSAPSHRSLPSRAFG[no letters for about 100 residues]SFGPGTKVDIKAAGSDQ[no letters for human IgG1 Fc with C220S P230S P238S T366S L368A Y407V (EU numbers)]
scFv 2: MEVQLVQSGAEVKKPGASVKVSCKASGYRFPHYGISWVRQAPGQGLEWMGWISAYNGNTNYAQKLQGRVTMTTDTSTNTAYMELRSLRSDDTAVYYCARDVDYGTGSGYWGQGTLVTVSSGGGGSGGGGSGGGGSSYELTQPPSVSVSPGQTARITCSGDALPKQYAYWYQQKPGQAPVMVIYKDTERPSGIPERFSGSSSGTKVTLTISGVQAEDEADYYCQSADNSITYRVFGGGTKVTVLAAGSDQ[no letters for human IgG1 Fc with changes]

From US20200079850A1 (SUTRO BIOPHARMA, published 2020)
